Laboratory results as given in ChEMBL document CHEMBL1201862, “PubChem BioAssay data set” (2004).
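Five compound concentrations were applied to cells in 96-well plates for 48 hours; endpoints were derived by simple linear interpolation of the resulting dose-response curve. At the GI50, growth is halved.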 Calls of active or inactive are those of the source. Rule as the data show it: active = GI50 up to about 1.1 µM and inactive = higher.

system: NCI-H322M; experiment: NCI tumour cell line growth inhibition, 48 h

| SMILES | GI50 |
| --- | --- |
| Cc1ccc2c(O)cc(-c3cc4ccccc4s3)nc2n1 | inactive: 62.2 µM |
| Cn1c(=O)c2c(nc(NCCNc3nc4c(c(=O)n(C)c(=O)n4C)n3C)n2C)n(C)c1=O | inactive: > 100 µM |
| c1ccc(CNCCN2CCNCC2)nc1 | inactive: > 100 µM |
| CN1C(=O)CC(CC(=O)C2CCCCC2=O)CC1=O (stereo not drawn) | inactive: > 100 µM |
| Sc1ncnc2c1ncn2Cc1ccco1 | inactive: > 100 µM |
| CN1CCc2[nH]nc(-c3n[nH]c4c3CN(C)CC4)c2C1 | inactive: > 100 µM |
| NC(=O)N/N=C/c1ccccc1O | inactive: > 100 µM |
| CSC1=N/C(=C\c2ccc(Cl)cc2)C(=O)N1CN1CCCCC1 | inactive: 50.1 µM |
| N#Cc1c(N2CCCC2)ncn(Cc2ccccc2)c1=O | inactive: > 100 µM |
| CC(=O)OC(C)(C)C1CCC(C)(C(O)COc2ccc(CCNC(=O)c3ccccc3)cc2)O1 (stereo not drawn) | inactive: > 100 µM |
| Oc1ccc(Br)cc1/C=N/c1c(NC2CCCCC2)oc2ccc(Br)cc12 | inactive: 40.9 µM |
| NC1=NN(c2ccccc2)C2(c3ccncc3C(=O)O)C1C(N)=NN2c1ccccc1 (stereo not drawn) | inactive: > 100 µM |
| CCOC(=O)/C=C/CCO[Si](C)(C)C(C)(C)C | inactive: > 100 µM |
| COc1ccc2c3c(ccc2c1)NC(C(=O)O)CC3 (stereo not drawn) | inactive: > 100 µM |
| CCOC(=O)C1([Se]c2ccccc2)CCCC1=O (stereo not drawn) | inactive: > 100 µM |
| CCCC(=O)OCC1OC(n2ccc(N)nc2=O)C(OC(=O)CCC)C1OC(=O)CCC (stereo not drawn) | inactive: > 100 µM |
| O=C1c2c(ccc3c2CCC3)CC12Cc1cc3c(cc1C2)CCC3 | inactive: > 100 µM |
| O=Cc1ccc(-c2ccc(-c3ccc(CO)s3)o2)s1 | inactive: 33.8 µM |
| C/C=C/C=C/C1=NN(c2cccc(S(=O)(=O)O)c2)C2(C1)SCC(=O)N2c1nc2ccccc2s1 (stereo not drawn) | inactive: > 100 µM |
| CSc1nc(-c2ccccc2)[nH]c(=O)n1 | inactive: 54.7 µM |
| Cc1nc2c(n1CC(C)(C)C)C(=O)c1ccccc1C2=O | inactive: > 100 µM |
| c1ccc2c(c1)CCN1CCc3ccccc3C1C2 (stereo not drawn) | inactive: 72.9 µM |
| CC(=O)Oc1ccc2cc(Oc3ccc(Cl)cc3)c(=O)oc2c1 | inactive: 49.3 µM |
| COC(=O)C1SC(N(C)c2ccccc2)=NC12c1ccccc1Nc1ccccc12 (stereo not drawn) | inactive: 25.8 µM |

| SMILES | GI50 |
| --- | --- |
| CCN(CC)c1ccc2cc(-c3csc(C)n3)c(=O)oc2c1 | inactive: > 100 µM |
| Cc1[nH]c2c(c1C)S(=O)(=O)c1cc3ccccc3nc1N2 | inactive: 36.6 µM |
| CC(C)CC(O)P(=O)(O)O.NC1CCCCC1 (stereo not drawn) | inactive: > 100 µM |
| C(=C\C(SCc1ccccc1)SCc1ccccc1)/c1ccccc1 | inactive: > 10 µM |
| COc1cc(NS(C)(=O)=O)ccc1N1Cc2c[nH]c3ccc4nccc1c4c23 | inactive: 27.6 µM |
| Cc1cccc(C)c1NC(=O)CCCC(=O)C(C#N)c1ccc(Cl)cc1 (stereo not drawn) | inactive: > 100 µM |
| Cc1cc(OCc2nnc3n2N=C(c2cc(F)c(Cl)cc2Cl)/C(=C/c2ccc(Cl)cc2)S3)ccc1Cl | inactive: 38.7 µM |
| [O-][S+]1CC[S+]([O-])CC[S+]([O-])CC1 (stereo not drawn) | inactive: > 100 µM |
| O=C(NNC(=S)Nc1ccccc1)C12CC3CC(CC(C3)C1)C2 | inactive: 25.2 µM |
| C[N+](C)(C)c1ncnc2c1ncn2C1CCCO1 (stereo not drawn) | inactive: > 100 µM |
| COC1C(N)C(OC2C(Oc3cccc4c(O)c5c(=O)oc6ccc(C)c7c(=O)oc(c34)c5c67)OC(C)C(O)C2(C)O)OC(C)C1O (stereo not drawn) | active: 0.0655 µM |
| CC(=O)OCC1OC(OC2C(COC(C)=O)OC(Sc3ccccc3C)C(OC(C)=O)C2OC(C)=O)C(OC(C)=O)C(OC(C)=O)C1OC(C)=O (stereo not drawn) | inactive: > 100 µM |
| CC(=O)NNc1nc(C)c(C(=O)NNC(=O)C(=O)Nc2ccc(Cl)cc2Cl)s1 | inactive: 47 µM |
| O=C(Nc1nnc(-c2c(Cl)c(Cl)c(Cl)c(Cl)c2-c2nc3cc(C(=O)c4ccccc4)ccc3[nH]2)o1)c1ccccc1 | inactive: 18.7 µM |
| C=C(CS(=O)(=O)c1ccccc1)C(=O)OCC | inactive: 16.5 µM |
| CCCCCCCCCCCCCCCCCCNc1nc(=O)n(C2CC(O)C(COP(=O)(O)OCC(COP(=O)(O)OC3C(CO)OC(n4ccc(N)nc4=O)C3O)OCCCCCCCCCCCCCCCCCC)O2)cc1F (stereo not drawn) | inactive: 24.3 µM |
| COc1cc(C2c3cc4c(cc3OC(C)(O)C2C)OCO4)cc(OC)c1OC (stereo not drawn) | active: 0.4 µM |
| Cc1nc2c(sc3nc4c(cc32)CCC4)c(=O)o1 | inactive: > 100 µM |
| CC(NO)/C(=N/O)c1ccco1 (stereo not drawn) | inactive: > 10 µM |
| Cc1nc(=O)[nH]c2[nH][nH]c(=O)c12 | inactive: > 100 µM |
| Cc1cc2[nH]c3c(C#N)c(-c4ccccc4)c(/C=N/c4cccc(C(F)(F)F)c4)c(=O)n3c2cc1C | inactive: > 100 µM |
| O=C(/C=C\c1cccc2ccccc12)c1ccc(Cl)cc1Cl | inactive: > 100 µM |
| CC(=O)c1ccc(/N=N/N2CCCC2)cc1 | inactive: > 100 µM |
| Oc1ccccc1C1=NOC(c2ccc(C(F)(F)F)cc2)C1 (stereo not drawn) | inactive: > 50 µM |

| SMILES | GI50 |
| --- | --- |
| CC1(C)C2CCC1(C)C(N/C(Sc1ccccc1)=C(/C(Cl)=C(Cl)Cl)[N+](=O)[O-])C2 (stereo not drawn) | inactive: 17.7 µM |
| COc1cc2c(cc1OC)C(CCN)=NCC2 | inactive: > 63.2 µM |
| CC(=O)Oc1cc(OC(C)=O)c2c(=O)c3ccccc3[nH]c2c1 | inactive: 20.5 µM |
| Cc1ccc(NC(=O)C2C(=O)N(c3ccc(C)cc3)C(=O)/C2=N\NC(N)=S)cc1 (stereo not drawn) | inactive: > 100 µM |
| Cc1c(C(=O)CC(=O)C(=O)Nc2ccc(Cl)cc2)[n+]([O-])c2ccccc2[n+]1[O-] | inactive: > 100 µM |
| Cc1ccc(C2SC(=N)Nc3c2c(C)nn3C(=O)c2ccccc2O)cc1 (stereo not drawn) | inactive: > 10 µM |
| O=C1Nc2ccccc2/C1=c1\[nH]c(=O)/c(=C\c2ccc(OCc3ccccc3)cn2)[nH]c1=O | inactive: > 100 µM |
| CCOC(=O)C1C(c2ccc(OC)cc2)c2c(n[nH]c2O)CC1(C)O (stereo not drawn) | inactive: > 100 µM |
| COc1cc2nc(-c3cccs3)nc(Nc3ccccc3C(=O)NN)c2cc1OC | inactive: > 100 µM |
| O=C1NC2CCCCC2N=C1CC(=O)c1ccc(Br)cc1 (stereo not drawn) | inactive: > 100 µM |
| Nc1nc(N)c2nc(CN(C=O)c3ccc(C(=O)O)cc3)cnc2n1 | inactive: 24 µM |
| CC(=O)OCC(Br)C1(C)CCC(C(C)(C)Br)O1 (stereo not drawn) | inactive: > 100 µM |
| Cn1cnc([N+](=O)[O-])c1[Se]c1ncnc2nc[nH]c12 | inactive: 4.31 µM |
| CCSC1=N/C(=C\c2ccco2)C(NN)=N1 | inactive: > 50 µM |
| O=C1C=CC(=O)c2c1ccc1c3ccccc3n(-c3ccccc3)c21 | inactive: 17.1 µM |
| CCn1c2ccccc2c2cc(Nc3cc(C)[nH]c(=O)n3)ccc21 | inactive: > 100 µM |
| C=CCn1c(=O)c2ccccc2[n+]2c(C)c(C(=O)OCC)sc12 | inactive: > 100 µM |
| Cc1[nH]c2ccccc2c1C1Cc2ccccc2N1C(=O)/C=C\C(=O)O (stereo not drawn) | inactive: 51.3 µM |
| O=C(CCC(NC(=O)OCc1ccccc1)C(=O)OCc1ccccc1)Nc1ccc(OCc2ccccc2)cc1 (stereo not drawn) | inactive: > 31.6 µM |
| O=C(Nc1cccc(C(F)(F)F)c1)c1cc(-c2ccccc2)nc(S)n1 | inactive: > 100 µM |
| C1=CCC[C@@H]2CN3CCCC/C=C\CCCC[C@H]4C[C@H](CN(CCCCCCCC1)C4)[C@H]2CC3 | inactive: 7.91 µM |
| Cc1cccc(CC(C)(C)C)c1NC(=O)C(=O)C(C(=O)c1ccc2ccccc2c1)C1OC(=O)c2ccccc21 (stereo not drawn) | inactive: 6.01 µM |
| Cc1n[nH]c(=O)c2c3c([nH]c12)-c1ccccc1C3 | inactive: > 100 µM |
| CCCn1c(SCC)c2cc3cc4ccccc4cc3cc2c1-c1nc(F)nc(F)n1 | inactive: > 100 µM |

| SMILES | GI50 |
| --- | --- |
| CCCCCCCCCCCCOCCCOP(=O)([O-])OCC[N+](C)(C)C | inactive: 80.2 µM |
| CC(C)c1c(O[Si](C(C)C)(C(C)C)C(C)C)cc2c(c1O)CC[C@H]1C(C)(C)CCC[C@]21C | inactive: > 100 µM |
| C#CCNC(Cc1ccccc1)C(=O)O (stereo not drawn) | inactive: > 100 µM |
| CC1=C(C)C(=O)C(C2=CC(=O)C=CC2=O)=C(C2=CC(=O)C=CC2=O)C1=O | inactive: > 100 µM |
| CN(C)c1ccc(/C=C2\N=C(c3ccccc3)N(c3nc4ccc(Sc5ccccc5)cc4[nH]3)C2=O)cc1 | inactive: 52.5 µM |
| Cn1c2ccccc2c(=NNc2ccc(S(=O)(=O)N=C(N)N)cc2)c2ccccc21 | inactive: 5.35 µM |
| CCc1cccc(C)c1N1C(=O)C(=O)C(c2nc3ccccc3o2)/C(=N/NC(=S)NN)C1=O (stereo not drawn) | inactive: > 100 µM |
| COc1ccc(/C=C2\C(=O)N(C3OC(COC(C)=O)C(OC(C)=O)C(OC(C)=O)C3OC(C)=O)c3ccccc3N=C2N)cc1 (stereo not drawn) | inactive: 32.1 µM |
| CC(C)CC1C(=O)NCCC(NC(=O)C(N)Cc2ccc(O)cc2)C(=O)NC(Cc2ccccc2)C(=O)NC(Cc2ccccc2)NC1=O (stereo not drawn) | inactive: > 100 µM |
| CCOC(=O)C1(NC(=O)OC(C)(C)C)CCc2[nH]oc(=O)c2C1 (stereo not drawn) | inactive: > 100 µM |
| Cc1cc2c(cc1C)[n+]([O-])c(NCCCN(C)C)c(C#N)[n+]2[O-] | inactive: > 100 µM |
| CC1(c2nc3ccccc3[nH]2)CCC(C(N)=O)C(C)(C)O1 (stereo not drawn) | inactive: > 100 µM |
| Nc1ncnc2c1ncn2C1C=CC(CP(=O)(O)O)C1 (stereo not drawn) | inactive: > 100 µM |
| CC(C)C[C@H]1[C@@H](OCc2ccccc2)COS(=O)N1[C@H](C)c1ccccc1 (stereo partly drawn) | inactive: 16 µM |
| O=C1c2cccc(O)c2C(=O)c2c(OC3OC(CO)C(O)C(O)C3O)cccc21 (stereo not drawn) | inactive: 32.6 µM |
| Cc1ccc(SSCCCCS(=O)O)cc1 | inactive: 25.9 µM |
| C=C1CC(OC)(C(OC)C(=O)N[C@H]2OCO[C@H]3C2O[C@H](C[C@@H](COC)OC)C(C)(C)C3OC)O[C@H](C)[C@@H]1C (stereo partly drawn) | active: 1 µM |
| C[C@H]1[C@H](C)CC[C@]2(C(=O)O)CCC3(COC(=O)/C=C/c4ccc(O)cc4)C(=CCC4[C@@]5(C)CC[C@H](O)C(C)(C)C5CC[C@]43C)[C@H]12 (stereo partly drawn) | inactive: 4.15 µM |
| c1ccc2c(CNCCCCCCCCCCCCNCc3cccc4ccccc34)cccc2c1 | inactive: 1.79 µM |
| N#Cc1c(N)nc2[nH]nc(N)c2c1-c1ccccc1 | inactive: 19.9 µM |
| CC(=O)Oc1cc(/C=C/c2ccc(O)cc2)cc(OC(C)=O)c1 | inactive: 38 µM |
